From the supplement of paper PMC8728848
The list shows a part of the results.

Tests used:
Experiment in all cases: glycan array binding signal (z-score within array); higher = stronger binding
Conditions in all cases: glycan notation: IUPAC condensed, linker removed
[1] = target: Gal(b1-4)GlcNAc(b1-2)[Gal(b1-4)GlcNAc(b1-6)]Man(a1-6)[Gal(b1-4)GlcNAc(b1-2)Man(a1-3)]Man(b1-4)GlcNAc(b1-4)[Fuc(a1-6)]GlcNAc
Procedure, shortened: (§1)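 Columns mapping to the same glycan were averaged after glycan names were converted to IUPAC-condensed notation. The data come from 3228 arrays in the Consortium for Functional Glycomics database, limited to those with an available protein sequence. Binding is reported as a within-array Z-score averaged across arrays of one protein sequence and across linkers.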

[2] = target: Gal(b1-4)GlcNAc(b1-2)[Gal(b1-4)GlcNAc(b1-6)]Man(a1-6)[GlcNAc(b1-4)][Gal(b1-4)GlcNAc(b1-2)Man(a1-3)]Man(b1-4)GlcNAc(b1-4)GlcNAc
Procedure, shortened: as §1

[3] = target: Gal(b1-4)GlcNAc(b1-2)[Gal(b1-4)GlcNAc(b1-6)]Man(a1-6)[GlcNAc(b1-4)][Gal(b1-4)GlcNAc(b1-2)[Gal(b1-4)GlcNAc(b1-4)]Man(a1-3)]Man(b1-4)GlcNAc(b1-4)[Fuc(a1-6)]GlcNAc
Procedure, shortened: as §1

[4] = target: Gal(b1-4)GlcNAc(b1-3)Gal(b1-3)GalNAc
Procedure, shortened: as §1

[5] = target: Gal(b1-4)GlcNAc(b1-3)Gal(b1-3)GlcNAc
Procedure, shortened: as §1

[6] = target: Gal(b1-4)GlcNAc(b1-3)Gal(b1-4)Glc
Procedure, shortened: as §1

[7] = target: Gal(b1-4)GlcNAc(b1-3)Gal(b1-4)GlcNAc
Procedure, shortened: as §1

[8] = target: Gal(b1-4)GlcNAc(b1-3)Gal(b1-4)GlcNAc(b1-2)Man(a1-3)[Gal(b1-4)GlcNAc(b1-3)Gal(b1-4)GlcNAc(b1-2)Man(a1-6)]Man(b1-4)GlcNAc(b1-4)GlcNAc
Procedure, shortened: as §1

[9] = target: Gal(b1-4)GlcNAc(b1-3)Gal(b1-4)GlcNAc(b1-2)Man(a1-3)[Gal(b1-4)GlcNAc(b1-3)Gal(b1-4)GlcNAc(b1-2)Man(a1-6)]Man(b1-4)GlcNAc(b1-4)[Fuc(a1-6)]GlcNAc
Procedure, shortened: as §1

[10] = target: Gal(b1-4)GlcNAc(b1-3)Gal(b1-4)GlcNAc(b1-2)[Gal(b1-4)GlcNAc(b1-3)Gal(b1-4)GlcNAc(b1-6)]Man(a1-6)[Gal(b1-4)GlcNAc(b1-3)Gal(b1-4)GlcNAc(b1-2)Man(a1-3)]Man(b1-4)GlcNAc(b1-4)GlcNAc
Procedure, shortened: as §1

[11] = target: Gal(b1-4)GlcNAc(b1-3)Gal(b1-4)GlcNAc(b1-2)[Gal(b1-4)GlcNAc(b1-3)Gal(b1-4)GlcNAc(b1-6)]Man(a1-6)[Gal(b1-4)GlcNAc(b1-3)Gal(b1-4)GlcNAc(b1-2)Man(a1-3)]Man(b1-4)GlcNAc(b1-4)[Fuc(a1-6)]GlcNAc
Procedure, shortened: as §1

[12] = target: Gal(b1-4)GlcNAc(b1-3)Gal(b1-4)GlcNAc(b1-3)Gal(b1-4)GlcNAc
Procedure, shortened: as §1

[13] = target: Gal(b1-4)GlcNAc(b1-3)Gal(b1-4)GlcNAc(b1-3)Gal(b1-4)GlcNAc(b1-2)Man(a1-3)[Gal(b1-4)GlcNAc(b1-3)Gal(b1-4)GlcNAc(b1-3)Gal(b1-4)GlcNAc(b1-2)Man(a1-6)]Man(b1-4)GlcNAc(b1-4)GlcNAc
Procedure, shortened: as §1

[14] = target: Gal(b1-4)GlcNAc(b1-3)Gal(b1-4)GlcNAc(b1-3)Gal(b1-4)GlcNAc(b1-2)Man(a1-3)[Gal(b1-4)GlcNAc(b1-3)Gal(b1-4)GlcNAc(b1-3)Gal(b1-4)GlcNAc(b1-2)Man(a1-6)]Man(b1-4)GlcNAc(b1-4)[Fuc(a1-6)]GlcNAc
Procedure, shortened: as §1

[15] = target: Gal(b1-4)GlcNAc(b1-3)Gal(b1-4)GlcNAc(b1-3)Gal(b1-4)GlcNAc(b1-2)[Gal(b1-4)GlcNAc(b1-3)Gal(b1-4)GlcNAc(b1-3)Gal(b1-4)GlcNAc(b1-6)]Man(a1-6)[Gal(b1-4)GlcNAc(b1-3)Gal(b1-4)GlcNAc(b1-3)Gal(b1-4)GlcNAc(b1-2)Man(a1-3)]Man(b1-4)GlcNAc(b1-4)[Fuc(a1-6)]GlcNAc
Procedure, shortened: as §1

[16] = target: Gal(b1-4)GlcNAc(b1-3)Gal(b1-4)GlcNAc(b1-3)Gal(b1-4)GlcNAc(b1-3)Gal(b1-4)GlcNAc(b1-2)Man(a1-3)[Gal(b1-4)GlcNAc(b1-3)Gal(b1-4)GlcNAc(b1-3)Gal(b1-4)GlcNAc(b1-3)Gal(b1-4)GlcNAc(b1-2)Man(a1-6)]Man(b1-4)GlcNAc(b1-4)GlcNAc
Procedure, shortened: as §1

[17] = target: Gal(b1-4)GlcNAc(b1-3)Gal(b1-4)GlcNAc(b1-3)Gal(b1-4)GlcNAc(b1-3)Gal(b1-4)GlcNAc(b1-2)Man(a1-3)[Gal(b1-4)GlcNAc(b1-3)Gal(b1-4)GlcNAc(b1-3)Gal(b1-4)GlcNAc(b1-3)Gal(b1-4)GlcNAc(b1-2)Man(a1-6)]Man(b1-4)GlcNAc(b1-4)[Fuc(a1-6)]GlcNAc
Procedure, shortened: as §1

[18] = target: Gal(b1-4)GlcNAc(b1-3)Gal(b1-4)GlcNAc(b1-3)Gal(b1-4)GlcNAc(b1-3)Gal(b1-4)GlcNAc(b1-2)[Gal(b1-4)GlcNAc(b1-3)Gal(b1-4)GlcNAc(b1-3)Gal(b1-4)GlcNAc(b1-3)Gal(b1-4)GlcNAc(b1-6)]Man(a1-6)[Gal(b1-4)GlcNAc(b1-3)Gal(b1-4)GlcNAc(b1-3)Gal(b1-4)GlcNAc(b1-3)Gal(b1-4)GlcNAc(b1-2)Man(a1-3)]Man(b1-4)GlcNAc(b1-4)[Fuc(a1-6)]GlcNAc
Procedure, shortened: as §1

[19] = target: Gal(b1-4)GlcNAc(b1-3)Gal(b1-4)GlcNAc(b1-3)Gal(b1-4)GlcNAc(b1-3)Gal(b1-4)GlcNAc(b1-3)Gal(b1-4)GlcNAc(b1-2)Man(a1-3)[Gal(b1-4)GlcNAc(b1-3)Gal(b1-4)GlcNAc(b1-3)Gal(b1-4)GlcNAc(b1-3)Gal(b1-4)GlcNAc(b1-3)Gal(b1-4)GlcNAc(b1-2)Man(a1-6)]Man(b1-4)GlcNAc(b1-4)GlcNAc
Procedure, shortened: as §1

[20] = target: Gal(b1-4)GlcNAc(b1-3)Gal(b1-4)GlcNAc(b1-3)Gal(b1-4)GlcNAc(b1-3)Gal(b1-4)GlcNAc(b1-3)Gal(b1-4)GlcNAc(b1-2)Man(a1-3)[Gal(b1-4)GlcNAc(b1-3)Gal(b1-4)GlcNAc(b1-3)Gal(b1-4)GlcNAc(b1-3)Gal(b1-4)GlcNAc(b1-3)Gal(b1-4)GlcNAc(b1-2)Man(a1-6)]Man(b1-4)GlcNAc(b1-4)[Fuc(a1-6)]GlcNAc
Procedure, shortened: as §1

[21] = target: Gal(b1-4)GlcNAc(b1-3)Gal(b1-4)GlcNAc(b1-3)Gal(b1-4)GlcNAc(b1-3)Gal(b1-4)GlcNAc(b1-3)Gal(b1-4)GlcNAc(b1-2)[Gal(b1-4)GlcNAc(b1-3)Gal(b1-4)GlcNAc(b1-3)Gal(b1-4)GlcNAc(b1-3)Gal(b1-4)GlcNAc(b1-3)Gal(b1-4)GlcNAc(b1-6)]Man(a1-6)[Gal(b1-4)GlcNAc(b1-3)Gal(b1-4)GlcNAc(b1-3)Gal(b1-4)GlcNAc(b1-3)Gal(b1-4)GlcNAc(b1-3)Gal(b1-4)GlcNAc(b1-2)Man(a1-3)]Man(b1-4)GlcNAc(b1-4)[Fuc(a1-6)]GlcNAc
Procedure, shortened: as §1

[22] = target: Gal(b1-4)GlcNAc(b1-3)Gal(b1-4)GlcNAc(b1-3)Gal(b1-4)GlcNAc(b1-3)Gal(b1-4)GlcNAc(b1-3)Gal(b1-4)GlcNAc(b1-3)Gal(b1-4)GlcNAc(b1-2)Man(a1-3)[Gal(b1-4)GlcNAc(b1-3)Gal(b1-4)GlcNAc(b1-3)Gal(b1-4)GlcNAc(b1-3)Gal(b1-4)GlcNAc(b1-3)Gal(b1-4)GlcNAc(b1-3)Gal(b1-4)GlcNAc(b1-2)Man(a1-6)]Man(b1-4)GlcNAc(b1-4)GlcNAc
Procedure, shortened: as §1

[23] = target: Gal(b1-4)GlcNAc(b1-3)Gal(b1-4)GlcNAc(b1-3)GalNAc
Procedure, shortened: as §1

[24] = target: Gal(b1-4)GlcNAc(b1-3)Gal(b1-4)GlcNAc(b1-3)[Gal(b1-4)GlcNAc(b1-3)Gal(b1-4)GlcNAc(b1-6)]GalNAc
Procedure, shortened: as §1

[25] = target: Gal(b1-4)GlcNAc(b1-3)Gal(b1-4)GlcNAc(b1-6)[Gal(b1-3)]GalNAc
Procedure, shortened: as §1

[26] = target: Gal(b1-4)GlcNAc(b1-3)Gal(b1-4)[Fuc(a1-3)]GlcNAc(b1-3)Gal(b1-4)[Fuc(a1-3)]GlcNAc
Procedure, shortened: as §1

[27] = target: Gal(b1-4)GlcNAc(b1-3)GalNAc
Procedure, shortened: as §1

[28] = target: Gal(b1-4)GlcNAc(b1-3)[Fuc(a1-3)GlcNAc(b1-6)]Gal(b1-4)Glc
Procedure, shortened: as §1

[29] = target: Gal(b1-4)GlcNAc(b1-3)[Gal(b1-4)GlcNAc(b1-6)]Gal(b1-4)GlcNAc
Procedure, shortened: as §1

[30] = target: Gal(b1-4)GlcNAc(b1-3)[GlcNAc(b1-6)]Gal(b1-4)GlcNAc
Procedure, shortened: as §1

[31] = target: Gal(b1-4)GlcNAc(b1-6)Gal(b1-4)GlcNAc
Procedure, shortened: as §1

[32] = target: Gal(b1-4)GlcNAc(b1-6)GalNAc
Procedure, shortened: as §1

[33] = target: Gal(b1-4)GlcNAc(b1-6)[Gal(b1-3)]GalNAc
Procedure, shortened: as §1

[34] = target: Gal(b1-4)GlcNAc(b1-6)[Gal(b1-4)GlcNAc(b1-3)]GalNAc
Procedure, shortened: as §1

Gal(b1-4)GlcNAc6P = target: Gal(b1-4)GlcNAc6P
Procedure, shortened: as §1

Gal(b1-6)Gal = target: Gal(b1-6)Gal
Procedure, shortened: as §1

Gal3S(b1-3)GalNAc = target: Gal3S(b1-3)GalNAc
Procedure, shortened: as §1

Gal3S(b1-3)GlcNAc = target: Gal3S(b1-3)GlcNAc
Procedure, shortened: as §1

B1: Epa3 (Candida glabrata), Q6VBI8_CANGB (protein)
chain: MGSSHHHHHHSSGLVPRGSHMNDLGFSLFEKRELSSQNPFGYPIGCSPQDVAIIPGLTMELYSYPIVSGTPPNCYDASYVDPEYPRTGYLKRKMVGKSTGVTGNLNYKYSVEKACMVKYGNLPAGYNYNEPLTVSNFTMILYGYFKAQTTGLHTFFVNADDLLYINFGAGNAFDCCKREDSKTKLGEYVAYDIWHVDSSKNKVSLFLEKDLYYPIRMFFNNIGKDSSLDLSFSVNGATDQISDFSGYLYSVPDQPDTCPAHIGYDTTCR
Q: Which results are given for B1?
A: glycan array binding signal (z-score) [1]: -0.134; glycan array binding signal (z-score) [2]: -0.347; glycan array binding signal (z-score) [3]: -0.301; glycan array binding signal (z-score) [4]: -0.203; glycan array binding signal (z-score) [5]: -0.224; glycan array binding signal (z-score) [6]: -0.2; glycan array binding signal (z-score) [7]: -0.401; glycan array binding signal (z-score) [8]: 1.13; glycan array binding signal (z-score) [9]: 0.089; glycan array binding signal (z-score) [10]: 0.339; glycan array binding signal (z-score) [11]: 0.064; glycan array binding signal (z-score) [12]: -0.403; glycan array binding signal (z-score) [13]: 0.864; glycan array binding signal (z-score) [14]: 0.151; glycan array binding signal (z-score) [15]: 0.09; glycan array binding signal (z-score) [16]: 0.035; glycan array binding signal (z-score) [17]: 0.059; glycan array binding signal (z-score) [18]: -0.004; glycan array binding signal (z-score) [19]: -0.104; glycan array binding signal (z-score) [20]: -0.108; glycan array binding signal (z-score) [21]: -0.003; glycan array binding signal (z-score) [22]: -0.131; glycan array binding signal (z-score) [23]: 0.036; glycan array binding signal (z-score) [24]: 0.093; glycan array binding signal (z-score) [25]: 0.768; glycan array binding signal (z-score) [26]: -0.168; glycan array binding signal (z-score) [27]: -0.379; glycan array binding signal (z-score) [28]: -0.265; glycan array binding signal (z-score) [29]: -0.322; glycan array binding signal (z-score) [30]: -0.322; glycan array binding signal (z-score) [31]: -0.194; glycan array binding signal (z-score) [32]: -0.001; glycan array binding signal (z-score) [33]: 1.35; glycan array binding signal (z-score) [34]: -0.246; glycan array binding signal (z-score) (Gal(b1-4)GlcNAc6P): -0.201; glycan array binding signal (z-score) (Gal(b1-6)Gal): -0.174; glycan array binding signal (z-score) (Gal3S(b1-3)GalNAc): -0.228; glycan array binding signal (z-score) (Gal3S(b1-3)GlcNAc): -0.084
